# According to the BET-seq Pho4 binding data (Le et al. 2018):
# The other results are listed elsewhere or left out. Values were computed here from the reads of four pooled replicates and scatter widely.
# Target: T1, Pho4 (S. cerevisiae) (UniProt P07270)
# T1 sequence: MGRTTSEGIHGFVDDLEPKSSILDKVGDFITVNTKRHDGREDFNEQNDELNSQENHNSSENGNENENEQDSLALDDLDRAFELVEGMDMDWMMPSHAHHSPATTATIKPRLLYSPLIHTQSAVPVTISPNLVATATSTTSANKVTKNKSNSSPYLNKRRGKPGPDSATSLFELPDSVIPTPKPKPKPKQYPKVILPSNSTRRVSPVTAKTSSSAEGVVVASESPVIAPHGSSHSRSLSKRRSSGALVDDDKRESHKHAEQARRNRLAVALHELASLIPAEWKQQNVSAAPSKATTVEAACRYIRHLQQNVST
# Assay: relative binding free energy (BET-seq); higher = weaker binding
# Settings: reference: library average
row,Sequence,relative binding free energy [kcal/mol]
1,TCTTGCACGTGAAGTA,0.31
2,GTAATCACGTGTACGG,0.27
3,TATTGCACGTGGGTTA,-0.05
4,GATATCACGTGCGGGG,0.2
5,TAAGGCACGTGATAGG,-0.07
6,AAGGGCACGTGACGGG,-0.05
7,TTGGTCACGTGAGCAA,0.38
8,AAAGCCACGTGGGGGA,-0.13
9,ATAAACACGTGGGCGG,-0.18
10,GATCTCACGTGAGGGT,0.41
11,TGGAACACGTGTGAGA,0.1
12,TGCTTCACGTGGTCGT,0.24
13,GGGGGCACGTGTTTAG,0.07
14,GGCGTCACGTGGAGGA,0.11
15,CAGGACACGTGGGAGT,-0.03
16,CGCGGCACGTGATTGG,-0.01
17,ATTGTCACGTGTTGCT,0.03
18,AAGCTCACGTGGGTAG,0.1
19,CGTATCACGTGGATGG,0.09
20,GAGTGCACGTGGCTTA,0.03
21,CTTGTCACGTGGTATC,-0.01
22,TTGGGCACGTGTTATT,-0.01
23,AGATGCACGTGGATAG,0.04

row,Sequence,relative binding free energy [kcal/mol]
1,GTGAGCACGTGGAGGC,-0.14
2,CATTTCACGTGCGGTG,0.26
3,TAGATCACGTGGGGAA,0
4,CCGAGCACGTGTGGGT,-0.13
5,ATCGTCACGTGATGGG,0.26
6,AGCGTCACGTGTGTTG,0.06
7,GTGAACACGTGTTTAT,-0.16
8,TTTAACACGTGTTGCA,-0.02
9,AGCTTCACGTGTTTAT,0.33
10,TCTTTCACGTGGTCGT,0.15
11,ATGGTCACGTGGCTTG,0.04
12,TCTGGCACGTGCGCGG,-0.21
13,GGTTACACGTGCAGAT,0.16
14,CTGATCACGTGGTTGG,0.04
15,GTATGCACGTGGCATT,-0.09
16,CTTTTCACGTGTTTTA,0.38
17,AAGGTCACGTGTAGCG,0.19
18,GGGGTCACGTGAGCAG,0.29
19,GTTACCACGTGTGGGC,0.03
20,TACATCACGTGGGGGG,-0.06
21,ATAAGCACGTGATATG,-0.07
22,TGAGGCACGTGGTGCG,-0.16
23,AGAGTCACGTGTGGTT,0.19

row,Sequence,relative binding free energy [kcal/mol]
1,GGCAGCACGTGGGTCA,-0.12
2,AGTGTCACGTGCAAGG,0.05
3,AGGGGCACGTGATCAG,0
4,TAGCTCACGTGAAGGT,0.41
5,CATTGCACGTGTAGTT,-0.04
6,TGGATCACGTGGGGGG,0.07
7,TTTTACACGTGAGATT,0.33
8,TTCGTCACGTGCGGTA,0.01
9,CTAGGCACGTGGTTGG,-0.3
10,AGTGTCACGTGGGGTG,-0.13
11,GGTAACACGTGGGCTG,-0.06
12,GAAGGCACGTGTCGGT,-0.05
13,TGTTTCACGTGAGTAC,0.3
14,TGTGACACGTGATATG,-0.13
15,AGGTCCACGTGGGGGG,-0.2
16,AGGGGCACGTGTTGTG,-0.11
17,ACTGGCACGTGAGGAT,0.2
18,TAGGGCACGTGGTCAG,-0.32
19,AGGAACACGTGGAGGT,0.09
20,TATCTCACGTGTCGTT,0.25
21,AGGTTCACGTGAACGT,0.41
22,GTCATCACGTGTTGAT,0.1
23,GGAGGCACGTGTAGAT,0.09

row,Sequence,relative binding free energy [kcal/mol]
1,TTGTACACGTGTAGCA,0.06
2,GTTTGCACGTGGCGAT,0.07
3,TCGTGCACGTGCTGGT,-0.03
4,TGGTACACGTGCACGG,0.14
5,ATTTGCACGTGATCTG,0.04
6,TAGCACACGTGGGTAG,-0.12
7,TTTCACACGTGTTGGC,0.33
8,TGCTGCACGTGTAGTG,-0.01
9,GGATGCACGTGATAGT,-0.01
10,TAAGTCACGTGTAAAG,0.1
11,TTATGCACGTGTCGTA,-0.02
12,TGACTCACGTGGGTAG,-0.03
13,CCTGTCACGTGTTAGG,0.22
14,TTGAGCACGTGAGGAG,0.13
15,TAGTTCACGTGATTAC,0.42
16,AAAGGCACGTGGTTAG,-0.13
17,TTAGTCACGTGGGTGC,0.02
18,GCGGGCACGTGATTTG,0.18
19,GTGTTCACGTGGGCTT,0.17
20,GGGATCACGTGGGCTT,0.15
21,CTTGGCACGTGGATGA,-0.02
22,TGGGTCACGTGAAATT,0.29
23,GTTGACACGTGTATCG,0.09

row,Sequence,relative binding free energy [kcal/mol]
1,TTTGTCACGTGGTATC,0.11
2,GAAGACACGTGTGCGG,0.18
3,AGGTACACGTGCGGTA,0.06
4,GGGTCCACGTGGATTG,0.06
5,GGGTACACGTGTATTA,0.23
6,GGGGTCACGTGATCTG,0.15
7,GGTTACACGTGGCTTG,0.21
8,AAGCGCACGTGTGGGC,-0.01
9,TTAGTCACGTGGGTGT,0.02
10,GGTTGCACGTGGCCTG,-0.14
11,AGGTTCACGTGGGCGT,0.11
12,ATTCGCACGTGTGCGT,-0.06
13,TGAGACACGTGTTTGG,0.01
14,TGGGGCACGTGCTGGA,-0.17
15,TTTGCCACGTGGACGG,-0.09
16,TATGTCACGTGGAGTC,-0.02
17,GTGTGCACGTGCGGTG,-0.07
18,AACTTCACGTGTTGGT,0.27
19,TGATCCACGTGGGTAT,-0.11
20,TGTGACACGTGTTATG,0.05
21,GTAGACACGTGGCTGT,-0.1
22,AAGATCACGTGTAGGA,0.1
23,GTTTTCACGTGTAGGG,0.26
